Results from PubChem BioAssay (NCATS).
Inconclusive means that the source gave no clear call. Such entries were picked first, then a sample of the others. For some assays here: Potencies beside an inconclusive call are fits to weak or partial responses and may not hold up. Calls of active or inactive are those of the source. Unless noted, calls come from the whole dose curve; as a rule, active = well fitted curve in the direction sought with a large enough effect; inconclusive = small, poorly fitted or top-dose-only effect, or another doubt; inactive = no such curve, though single readings can be large; an effect the other way counts as inactive or inconclusive.

Assays:
[1] = Primary qHTS for inhibitors of nuclear receptor binding SET domain protein 2 (NSD2) in an RCH-ACV wild type WT cells (2C) (AID 1645877); conditions: activity change, negative = cell killing: at 44.9 µM (top of the series) unless noted; note: nearly all actives have a fitted effect of over 70% in size; for activity change, negative = cell killing: % is set by controls: 0 for no effect and ±100 for the full control effect
CRL-7250 = normal cell line; test: Cytotoxic Profiling of Annotated Libraries Using Quantitative High-Throughput Screening (AID 1296008); conditions: Five cell lines viability, CellTiter-Glo ATP luminescence, 48-72 h; max response: active compounds read low; note: nearly all actives have a fitted effect of over 60% in size; note: potency is the fitted concentration of half-maximal effect; for max response: % is set by controls: 0 for no effect and ±100 for the full control effect
Procedure, shortened: (§1)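 Compounds were pin-transferred onto cells and incubated 48 or 72 hr at 37 degree Celsius, 95% humidity. CellTiter-Glo was added, plates sat 10 min at room temperature, then ATP-coupled luminescence was imaged as the viability read-out.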

[2] = Primary qHTS for inhibitors of nuclear receptor binding SET domain protein 2 (NSD2) in an isogenic RCH-ACV NSD2 p.E1099K mutant (9B) (AID 1645876); note: nearly all actives have a fitted effect of over 70% in size; for activity change, negative = viability loss: % is set by controls: 0 for no effect and ±100 for the full control effect
[3] = qHTS Assay for Identification of Small Molecule Agonists for Hypoxia Response Element Signaling Pathway (AID 914; active = well fitted activation curve with a large enough effect in the signal ratio, with a control signal flat, not every such curve was filed as active; inconclusive = small, poorly fitted or top-dose-only effect, or effect the other way, or a change in a side signal; the % refers to the signal ratio; note: top concentration of the series differs between compounds; % of control where 0% means no effect); conditions: ME-180 (cervical carcinoma) HRE-bla reporter, beta-lactamase ratio, CoCl2, 17 h; activation: active compounds read high
Procedure, shortened: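 Compounds in a titration series were added to ME-180 reporter cells alongside an EC50 level of CoCl2. After 17 hours, beta-lactamase activity was read as the 460nm/530nm emission ratio of CCF4, giving AC50 values.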

[4] = P-glycoprotein substrates identified in KB-8-5-11 adenocarcinoma cell line, qHTS therapeutic library screen (AID 1346987); note: % is set by controls: 0 for no effect and ±100 for the full control effect; nearly all actives have a fitted effect of over 65% in size
Procedure, shortened: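 Human cervical adenocarcinoma KB-8-5-11 cells, selected in colchicine to over-express P-gp and assayed without it, were exposed for 72 h to titrated compounds. An ATP-based luminescent viability signal gave AC50.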

[5] = Primary qHTS for small molecule stabilizers of the endoplasmic reticulum resident proteome: Secreted ER Calcium Modulated Protein (SERCaMP) assay (AID 1508630); conditions: SH-SY5Y GLuc-SERCaMP (Gaussia luciferase released on ER calcium loss) secretion, thapsigargin, luminescence; activity change, negative = inhibition: at 38.4 µM (top of the series) unless noted; note: potency is the fitted concentration of half-maximal effect
Procedure, shortened: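 The SH-SY5Y reporter protocol was run at 3 concentrations up to 38.3 uM (primary) or 11 concentrations (follow-up): 16 h compound, 100 nM thapsigargin for 4 h, then extracellular luciferase luminescence.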

[6] = biological target: Cytochrome P450 2D6 (Homo sapiens) (UniProt P10635); test: Cytochrome P450 family 2 subfamily D member 6 (CYP2D6) small molecule antagonists: luciferase biochemical (cell-free) qHTS assay (AID 1645840; active = well fitted curve in the direction sought with a large enough effect in the repeat runs; inconclusive = weak or mixed curves; inactive = no such curve, though single readings can be large; an effect the other way counts as inactive or inconclusive; note: % is set by controls: 0 for no effect and ±100 for the full control effect; nearly all actives have a fitted effect of over 55% in size)
UniProt P10635, sequence (P10635 whole entry, looked up): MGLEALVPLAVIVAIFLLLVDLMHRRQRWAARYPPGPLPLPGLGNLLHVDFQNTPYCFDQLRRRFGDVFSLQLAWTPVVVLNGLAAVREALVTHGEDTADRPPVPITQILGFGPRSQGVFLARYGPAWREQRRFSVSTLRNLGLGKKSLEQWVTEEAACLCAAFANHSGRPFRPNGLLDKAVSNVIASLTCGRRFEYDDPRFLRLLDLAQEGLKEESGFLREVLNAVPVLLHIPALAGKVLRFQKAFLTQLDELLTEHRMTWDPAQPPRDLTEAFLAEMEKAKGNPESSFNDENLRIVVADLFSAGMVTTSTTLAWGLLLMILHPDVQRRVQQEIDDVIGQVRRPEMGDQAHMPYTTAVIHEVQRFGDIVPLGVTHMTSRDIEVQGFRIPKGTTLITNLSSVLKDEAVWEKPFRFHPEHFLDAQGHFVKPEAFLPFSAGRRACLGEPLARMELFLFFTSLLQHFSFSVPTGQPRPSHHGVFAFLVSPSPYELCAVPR
Procedure, shortened: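 P450-Glo CYP2D6 system: proluciferin substrate converted by enzyme to luciferin, read by luminescence proportional to activity. Enzyme-substrate mix with compound 10 min at room temperature, then NADPH regeneration 1 h before detection reagent.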

CP185 = test: qHTS profiling for inhibitors of Plasmodium falciparum proliferation (AID 504749); note: nearly all actives have a fitted effect of over 60% in size; note: potency is the fitted concentration of half-maximal effect;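 for activity, negative = inhibition: 0% = DMSO vehicle and full inhibition = artemisinin control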; conditions: P. falciparum in erythrocytes, SYBR Green DNA, 72 h; series mostly up to 28.7 µM
Procedure, shortened: (§2)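 Fluorescence of SYBR Green-bound parasite DNA, read at 485/535 nm, served as the growth measure. Infected erythrocytes were cultured with compound 72 h; artemisinin (0.29 uM) and DMSO wells defined the normalization range.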

CP215 = test: as above; conditions: P. falciparum in erythrocytes, SYBR Green DNA, 72 h; series mostly up to 28.7 µM
Procedure, shortened: as §2

CP262 = test: as above; conditions: P. falciparum in erythrocytes, SYBR Green DNA, 72 h; series mostly up to 28.7 µM
Procedure, shortened: as §2

CP268 = test: as above; conditions: P. falciparum in erythrocytes, SYBR Green DNA, 72 h; series mostly up to 28.7 µM
Procedure, shortened: as §2

CP297 = test: as above; conditions: P. falciparum in erythrocytes, SYBR Green DNA, 72 h; activity, negative = inhibition: at 28.7 µM (top of the series) unless noted
Procedure, shortened: as §2

CP315 = test: as above; conditions: P. falciparum in erythrocytes, SYBR Green DNA, 72 h; series mostly up to 28.7 µM
Procedure, shortened: as §2

CP325 = test: as above; conditions: P. falciparum in erythrocytes, SYBR Green DNA, 72 h; series mostly up to 28.7 µM
Procedure, shortened: as §2

CP329 = test: as above; conditions: P. falciparum in erythrocytes, SYBR Green DNA, 72 h; series mostly up to 28.7 µM
Procedure, shortened: as §2

P93_24 = test: as above; conditions: P. falciparum in erythrocytes, SYBR Green DNA, 72 h; series mostly up to 28.7 µM
Procedure, shortened: as §2

PAD = test: as above; conditions: P. falciparum in erythrocytes, SYBR Green DNA, 72 h; series mostly up to 28.7 µM
Procedure, shortened: as §2

HEK293 = test: Cytotoxic Profiling of Annotated Libraries Using Quantitative High-Throughput Screening (AID 1296008); conditions: Five cell lines viability, CellTiter-Glo ATP luminescence, 48-72 h; max response: active compounds read low; note: nearly all actives have a fitted effect of over 60% in size; note: potency is the fitted concentration of half-maximal effect; for max response: % is set by controls: 0 for no effect and ±100 for the full control effect
Procedure, shortened: as §1

C33A = test: Primary qHTS to identify gynecologic anti-cancer compounds using libraries of approved drugs and bioactive compounds (AID 1345084); conditions: Gynecologic cancer cell panel viability, ATPlite luminescence, 48 h; series mostly up to 57.5 µM; note: nearly all actives have a fitted effect of over 55% in size; note: potency is the fitted concentration of half-maximal effect
Procedure, shortened: (§3)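 Five-concentration response, 48 h; readout is ATP-driven luciferase luminescence.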

Hek293T = test: as above; conditions: Gynecologic cancer cell panel viability, ATPlite luminescence, 48 h, control line for the selectivity index; activity change, negative = cytotoxicity: at 57.5 µM (top of the series) unless noted
Procedure, shortened: as §3

JEG-3 = test: as above; conditions: Gynecologic cancer cell panel viability, ATPlite luminescence, 48 h; series mostly up to 57.5 µM
Procedure, shortened: as §3

OV90 = test: as above; conditions: Gynecologic cancer cell panel viability, ATPlite luminescence, 48 h; series mostly up to 57.5 µM
Procedure, shortened: as §3

PA-1 = test: as above; conditions: Gynecologic cancer cell panel viability, ATPlite luminescence, 48 h; series mostly up to 57.5 µM
Procedure, shortened: as §3

SKOV3 = test: as above; conditions: Gynecologic cancer cell panel viability, ATPlite luminescence, 48 h; series mostly up to 57.5 µM
Procedure, shortened: as §3

MKL-1 = test: qHTS assay to identify novel small-molecules to repurpose for Merkel cell carcinoma treatment (AID 1296009); conditions: MCC and control cell lines, CellTiter-Glo viability, 72 h; activity change, negative = cytotoxicity: at 46 µM (top of the series); note: % is set by controls: 0 for no effect and ±100 for the full control effect; nearly all actives have a fitted effect of over 60% in size
Procedure, shortened: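 Luminescence from CellTiter-Glo, read 10 min after addition at room temperature, reported viability following a 72 hr, 37 degree celsius treatment with NPC or MIPE compounds in titration; values normalized to plate controls.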

[7] = test system: Zika virus NS2B-NS3 protease (linked construct); test: Primary screen NINDS Rhodamine qHTS for Zika virus inhibitors (AID 1347160); conditions: activity change, negative = inhibition: at 57.1 µM (top of the series) unless noted; note: % is set by controls: 0 for no effect and ±100 for the full control effect; nearly all actives have a fitted effect of over 55% in size
Procedure, shortened: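 Rhodamine110-peptide cleavage (1.5 µM substrate) by 25 nM linked NS2B-NS3 enzyme at pH 8.0 (Tris, Tween 20), after 15 min RT preincubation with compounds; 15-min fluorescence change normalized to controls and Hill-fitted.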

[8] = biological target: Phospholipid hydroperoxide glutathione peroxidase GPX4 (Homo sapiens) (UniProt P36969); test: Primary qHTS Assay for Inhibitors of Recombinant Selenoprotein Glutathione Peroxidase 4 (GPX4) (AID 1845192); note: % is set by controls: 0 for no effect and ±100 for the full control effect; nearly all actives have a fitted effect of over 65% in size
UniProt P36969, sequence (P36969 whole entry, looked up): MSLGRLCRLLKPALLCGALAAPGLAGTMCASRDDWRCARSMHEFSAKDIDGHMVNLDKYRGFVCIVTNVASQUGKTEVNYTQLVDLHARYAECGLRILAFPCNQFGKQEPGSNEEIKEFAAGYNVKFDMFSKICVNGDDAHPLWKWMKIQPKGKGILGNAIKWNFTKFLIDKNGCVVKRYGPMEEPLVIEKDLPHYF
Procedure, shortened: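 qHTS, GR-coupled: GPX4 200 nM + cpd 30 min RT → GSH 1 mM, NADPH 0.5 mM, GR 100 nM → CHP 0.5 mM start; fluor 340/450 at t0 and t15 min; no-enzyme wells as control.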
Tags give direction and shape of the fitted curve.

C/C=C/C(=O)OC1/C=C/C(O)C(OC(C)=O)CCC(=O)OC1C (configuration not stated)
inactive: Potency [1] | max response (CRL-7250) -1.17%

OCc1ccc(O[C@@H]2O[C@H](CO)[C@@H](O)[C@H](O)[C@H]2O)cc1
inconclusive: Potency (CRL-7250) 6.51 µM [inhibitor, partial curve, poor fit]
inactive: Potency [2]

Cc1ncc(CO)c(CN)c1O
inconclusive: activation [3] -7.13% | Potency [5] 28.2 µM [inhibitor, single point] | Potency (CP215) 19 µM [inhibitor, single point] | Potency (CP262) 4.26 µM [activator, single point] | Potency (P93_24) 3.16 µM [inhibitor, single point] | Potency (PAD) 17.8 µM [inhibitor, single point] | Potency (JEG-3) 11.2 µM [rising, partial curve, poor fit] | Potency (OV90) 22.4 µM [rising, partial curve, poor fit] | Potency (PA-1) 39.8 µM [rising, single point] | Potency (SKOV3) 39.8 µM [rising, single point]
inactive: Potency [4] | Potency [6] | Potency [2] | Potency (CP185) | Potency (CP268) | Potency (CP297) | Potency (CP315) | Potency (CP325) | Potency (CP329) | max response (HEK293) -5.62% | Potency (C33A) | Potency (Hek293T) | Potency (MKL-1)

C=CC(C)(CC/C=C(\C)C(=O)OC[C@H]1O[C@@H](OC(C)(C=C)CC/C=C(\C)C(=O)O[C@H]2[C@H](O)[C@@H](O)[C@H](OC(C)(C=C)CC/C=C(\C)C(=O)O)O[C@@H]2CO)[C@H](O)[C@@H](O)[C@@H]1O)O[C@@H]1O[C@H](CO)[C@@H](O)[C@H](O)[C@H]1O (some centres not stated)
inactive: Potency [7] | activity change, negative = viability loss [2] -1.17% [at 9.23 µM] | outcome [1] inactive [at 9.23 µM] | Potency [8] | max response (CRL-7250) -2.1%
